# In the supplement of paper PMC10126150:
# Values marked as one replicate rest on one cluster of the flow cell; about a third of the high ones do not repeat.
# Test system: ATP
# Assay: switch fluorescence ratio, 500 uM ATP over buffer (Cy3 cluster intensity, sum of 5 cycles each) (fold (ratio)); higher = stronger signal-on switching upon ATP binding; sequences stand for … in TCGTCGGCAGCGTCAGATGTGTATAAGAGACAGTTTTTTTTTTTTTTTTTTTTTTTTT…TC
# Settings: aptamer strand: ATP DNA aptamer (quencher-CACCTGGGGGAGTATTGCGGAGGAAGG + anchor), 100 nM annealed; ATP concentration: 500 uM; one replicate
# Procedure, shortened: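 After annealing to 100 nM quencher-labelled ATP aptamer, Cy3-labelled switching-strand clusters on a modified Illumina MiSeq flow-cell were imaged in selection buffer. A second image followed after 15 min with 500 uM ATP at 22 °C, and five such buffer/ATP cycles were done, each separated by NaOH stripping and re-annealing. The fluorescence ratio, averaged per switch-domain sequence, is summed target-cycle over summed buffer-cycle Cy3 intensity per cluster, with clusters outside 100-1000 RFU excluded.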
# 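Further: ATP exposure 15 min at 22 °C before imaging.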
row,Sequence,switch fluorescence ratio
1,AACGATGGTG,0.961
2,ACGTAGCTGG,1.17
3,TCGGCTGGAC,1.34
4,GTAGAGCAC,1.02
5,GAATCAACGT,1.02
6,GAAGAATTTG,0.977
7,AGTTGGCTGT,0.958
8,TATGGGATGG,0.978
9,AGTGGACGCG,0.873
10,GGGTTCTAGA,1.02
11,CTCAGCAGCT,2.24
12,GTCATACCTG,1.01
13,CTCGCGCAAG,3.5
14,TTCGCACACT,1.15
15,CGCTGATGAT,0.999
16,TCGTATTTGT,1
17,GAGTGGTGCG,1.01
18,AGCCAACGAC,1.36
19,ACGTCTGCCC,0.975
20,GATGCCGCCA,1.04
21,TGCGCATCCG,1.01
22,ATGCTAGCTG,1
23,GCGGTATCAG,0.921

row,Sequence,switch fluorescence ratio
1,TGATACACAA,1.03
2,GAAAGATAGG,0.961
3,AGAGAAAGTG,1.03
4,CTCCGGGGT,1.82
5,TTGGGGATCA,0.956
6,ACTAGAGGCG,0.989
7,GCAGCTTTTC,1.4
8,CTTGATCTGT,1.01
9,TCTCAATTTT,0.996
10,TCGCCGCTTC,1.68
11,CTGTACGCAC,3.16
12,GTTCTCCAAT,1.01
13,AATATAAGAA,0.988
14,CAGGGTCGCG,0.981
15,ACCTGTCCCG,1.37
16,CTTGAGGAAT,0.999
17,CCATCTGGTG,2.74
18,AAAACTGCAA,1.54
19,ATTCTGATCG,1.03
20,CGGTGGGCTG,0.969
21,GCTGGAAGCT,1.13
22,GTGAAAATCG,1.02
23,TGCCTTACAG,1.02

row,Sequence,switch fluorescence ratio
1,CGTCCTAAC,1.19
2,AACCCATGC,1.21
3,TAACGCAGGG,1.02
4,AAGGACACAG,1.1
5,TATGAAATTA,1.02
6,CAATTGCGGA,1.09
7,GACGGTAGGT,1.07
8,GACATTCCCG,1.08
9,CACCAGCCCT,1.05
10,AAGTGGTAAT,0.982
11,GCTACTGGC,0.973
12,GCAAGGAAAC,1.03
13,TTAGGGGAG,1.06
14,CTTCCGAGGA,1.57
15,CGAAGGTGTT,1.16
16,TATTGGGCTG,0.939
17,GTCGTGGTGC,0.998
18,AGCGAAACGG,1.08
19,GCGTCATGGT,0.989
20,TCGTGATA,1.07
21,TTCAAAGGAT,0.996
22,CGTCAAAGGG,1.01
23,GAAACAATAG,1.32

row,Sequence,switch fluorescence ratio
1,TTGTACGGTT,1.02
2,TGTGTGTGAT,1.02
3,GATCAGATT,1
4,GAAAGGCGGA,1.03
5,TTCAGGGCGT,1.01
6,ACTGAGTGCA,1.08
7,TACATGTAGA,1.05
8,AATGACTCAC,1.2
9,TTTATTTCGA,0.984
10,CTTGTAAATG,1.06
11,TAGGTTTCCT,1.28
12,TAACATTGT,1.02
13,TGCAGGCCCA,0.99
14,CGTGTGAGCC,0.97
15,TTTCTATAAA,1.02
16,TTCGCGCCAG,0.998
17,ATTATCCAAT,1.01
18,TTTCAGTTTG,0.974
19,AGGTTATGAC,1.01
20,TCGACTATGG,0.964
21,GTTATGTGT,1
22,CTTCTAGACT,0.994
23,ACTTATTACC,1.07

row,Sequence,switch fluorescence ratio
1,GGTTCATGGA,1.02
2,GATGGTCCC,1.1
3,GGCATGTTCC,1.09
4,GTAGGTATCG,0.94
5,GAGATCATAC,1.04
6,TAACGGAAAG,1.05
7,TGGGTTGCT,0.974
8,CGACAGCCTG,0.882
9,ACCTTATAAA,1.05
10,GGGAGGCGGA,1.01
11,TACGAGTTCA,1
12,GGGCAGGAAC,0.979
13,TGGGGCCGGT,0.94
14,CGAGAAGCCC,0.994
15,CGATGGGCCC,1.04
16,CAAGGTTAAT,1.1
17,TGAATGGTCA,1.02
18,TGCGACAATG,0.947
19,AAATCTAGCT,1.03
20,TGAGGCACAA,1.03
21,GCTCTGACCT,1.2
22,ACTAGCAGTG,1
23,TGGGTTGGAA,1.05

row,Sequence,switch fluorescence ratio
1,ACCGGGCCGC,1.08
2,AATTAGCCCA,1.08
3,GATTCCCACT,1.06
4,TTTGGTGT,1.02
5,TGCAACCAAG,1.02
6,TGCTAGCGGT,1.03
7,AAAGGCATGA,0.996
8,GGACACTCTA,1.05
9,GGTGGTTAGG,0.988
10,TACATGCCTG,0.958
11,CCACTCAGAC,1.19
12,TGGCTTAATC,1.01
13,CGCGGCTTCT,0.996
14,CTGCTCTGTT,1.03
15,CGGCTCTTAT,0.967
16,ACCCAGTCGT,0.996
17,AAATGTGTGC,1.06
18,TCGCTGTCTC,1.11
19,TCCCCGGCCC,1.44
20,AGATACCTAT,0.96
21,TTCAGTGCAC,0.979
22,TCATCTATGC,1.01
23,AAAGTCCGGT,1.02

row,Sequence,switch fluorescence ratio
1,GAAAAGATAG,0.991
2,GCGATAGGA,1.08
3,AGTATAGGAG,0.991
4,AACACCTTT,0.997
5,ACCGTCCAGC,1.2
6,ATGAGCGAG,0.987
7,TCCGGTCAAC,1.54
8,AAGCGACTGG,0.997
9,TGCTGCAG,1.04
10,CGAAATTCCC,1.84
11,CGTCGCTAGT,1.03
12,CTCGCCAGGA,1.15
13,GGTTTGGAGG,1.01
14,CTCGCTTGCC,0.963
15,ATAGCTATTC,1.1
16,TTGCGATTAG,0.995
17,GTACGATGGA,1.01
18,TATGCAATAG,4.28
19,AGGACATAAA,1.4
